Assay results taken from paper PMC6919601, “Identification of Plasmodium dipeptidyl aminopeptidase allosteric inhibitors by high throughput screening” (PLoS ONE, 2019).
About 230 (0.21%) of roughly 110,000 compounds showed an effect of 50% or more. The list shows a part of the results.

target: DPAP1 (Plasmodium falciparum, UniProt Q8IIJ9); test: primary screen, percent inhibition; read by cleavage of a fluorogenic dipeptide substrate; higher = more effect of the substance; parameters: species or system P. falciparum D10 trophozoite lysates; single well
Sequence (Q8IIJ9 whole entry, looked up): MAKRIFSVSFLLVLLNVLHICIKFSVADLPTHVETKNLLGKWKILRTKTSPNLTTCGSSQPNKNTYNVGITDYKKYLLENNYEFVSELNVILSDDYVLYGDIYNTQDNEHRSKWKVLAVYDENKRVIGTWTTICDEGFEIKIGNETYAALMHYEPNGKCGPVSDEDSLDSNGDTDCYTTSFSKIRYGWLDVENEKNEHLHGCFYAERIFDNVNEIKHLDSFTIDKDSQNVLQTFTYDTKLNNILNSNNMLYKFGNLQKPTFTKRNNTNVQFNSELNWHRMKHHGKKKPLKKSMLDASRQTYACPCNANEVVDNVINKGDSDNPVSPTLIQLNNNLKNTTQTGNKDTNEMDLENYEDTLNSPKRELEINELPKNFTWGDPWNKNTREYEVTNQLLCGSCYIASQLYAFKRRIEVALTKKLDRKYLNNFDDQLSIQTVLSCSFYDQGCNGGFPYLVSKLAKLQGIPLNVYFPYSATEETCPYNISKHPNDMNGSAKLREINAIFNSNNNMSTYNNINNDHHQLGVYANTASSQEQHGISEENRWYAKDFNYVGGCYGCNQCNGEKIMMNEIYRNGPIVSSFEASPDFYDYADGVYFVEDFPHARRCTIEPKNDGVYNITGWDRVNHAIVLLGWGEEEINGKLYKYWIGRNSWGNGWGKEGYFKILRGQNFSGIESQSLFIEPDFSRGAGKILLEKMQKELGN
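Also: 30 min substrate incubation versus DMSO and 10 µM JCP410 controls.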

Row | SMILES | % Inhibition @ 10 uM [%]
1 | CCOC(=O)C1CCN(Cc2cc(Br)ccc2OC)CC1 | -0.294
2 | O=C(Nc1ccccc1)c1cc2ccccc2c(=O)s1 | 0.343
3 | CCCCc1c(C)nc2ccc(OC)cc2c1Cl | 1.27
4 | COc1ccc(C2C(C#N)C(=O)NC(=O)C2[n+]2ccccc2)cc1 (stereo not shown) | -2.86
5 | CCc1[nH]nc2c1C(c1ccc(O)cc1)C(C#N)=C(N)O2 (stereo not shown) | -2.53
6 | CCOC(=O)c1[nH]c2ccccc2c1NC(=O)c1ccc(C(C)(C)C)cc1 | 4.14
7 | COc1cc(C2C(C#N)=C(N)Oc3[nH]nc(C)c32)ccc1OCc1cccc(F)c1 (stereo not shown) | 0.746
8 | Cc1ccnc(NC(=O)c2c(-c3ccccc3Cl)noc2C)c1 | 2.93
9 | Oc1ccc(-c2nc3ccc4ccccc4c3c3c2CCCC3)c(O)c1 | 4.63
10 | CCCN1CCC(N2CCCC(C(=O)N(C)CCc3ccc(OC)c(OC)c3)C2)CC1 (stereo not shown) | 5.44
11 | COc1ccc2c(C)c(CC(=O)NCc3ccco3)c(=O)oc2c1OC | -0.808
12 | O=C(CCn1nc(-c2ccc(Cl)cc2)c2ccccc2c1=O)N1CCN(Cc2ccccc2)CC1 | -1.17
13 | CCC(CC)CC(NC(=O)OCc1ccccc1)C(=O)NCC#N (stereo not shown) | -1.41
14 | Cc1ccc(-c2nnc(C3CCN(S(=O)(=O)c4ccc(C(C)(C)C)cc4)CC3)o2)cc1 | 8.53
15 | COc1ccc(-c2noc(CSc3nnc(-c4ccncc4)n3-c3ccccc3)n2)cc1OC | -0.45
16 | CCO/C(O)=C1\Sc2ccccc2N=C1C | -5.62
17 | Clc1ccccc1CNCc1cn2c(-c3ccc(Br)cc3)nnc2s1 | -9.42
18 | O=C(COc1ccc(Cl)cc1)NCc1nnc(SCC(=O)N2CCCC2)o1 | -7.21
19 | COC(=O)c1ccc(OCC2c3cc(OC)c(OC)cc3CCN2C(=O)Cc2cccs2)cc1 (stereo not shown) | 0.237
20 | CCCN(CCC)CCNC(=O)C1CCN(c2nc3ccc(OC)cc3s2)CC1 | 3.33
21 | CN1C(=O)c2cccc3c(S(=O)(=O)N4CCCC4C(=O)O)ccc1c23 (stereo not shown) | -0.95
22 | COc1ccc(-n2c(Cc3cccn3C)nnc2SCC(=O)NCc2ccco2)cc1 | -7.65
23 | Cc1ccc(CNC(=O)CSCc2csc(C)c2)cc1 | -0.231
24 | CCC(C)NC(=O)c1nn(C)c2c1COc1ccccc1-2 (stereo not shown) | 3.3
25 | CC1=CCC(c2cnc(-c3ccccc3)c(C)c2)NC1c1ccccc1 (stereo not shown) | -8.11

Row | SMILES | % Inhibition @ 10 uM [%]
26 | Cc1[nH]c2ccccc2c1/C=C1\C(=N)N2N=C(N3CCC(C)CC3)SC2=NC1=O | -3.44
27 | CC(=O)c1cc(-c2ccccc2)n(CC(=O)NCc2ccccc2F)c1C | 7.81
28 | Cc1ccc(S(=O)(=O)c2nnn3c2nc(NCCC(C)C)c2sccc23)cc1 | 4.58
29 | CC(=O)N1N=C(N)SC1c1ccc(N(C)C)cc1 (stereo not shown) | -3.93
30 | Cc1nnc(NC(=O)C(=O)c2cc(C)n(-c3ccccc3)c2C)s1 | 0.655
31 | O=C(O)c1ccc(Oc2ccc(S(=O)(=O)c3ccc(C(=O)O)cc3)cc2)cc1 | 1.63
32 | COc1c(Cl)cc(Cl)cc1-c1c(C#N)c(N)n2c(nc3ccccc32)c1C#N | 3.46
33 | CC(Oc1ccccc1)C(=O)Nc1ccc(C(=O)c2ccccc2)cc1 (stereo not shown) | -2.65
34 | COc1ccc2c(C)nc(/N=C(N)/N=C(\C)c3ccccc3C(=O)O)nc2c1 | -1.41
35 | CC1=C(C(=O)OCc2ccccc2)C(c2sccc2C)NC(S)=N1 (stereo not shown) | -5.63
36 | CCOc1cccc(C(=O)Nc2ccc(Cl)cn2)c1 | -0.0938
37 | O=C1c2ccc(Oc3ccc4c(c3)C(=O)N(CC3CCCO3)C4=O)cc2C(=O)N1CC1CCCO1 (stereo not shown) | -7.28
38 | O=C(c1ccc(Br)cc1)N1CCC(Cc2ccccc2)CC1 | 1.96
39 | CC(CCCC(C)(C)O)NC1CCc2ccccc2C1 (stereo not shown) | -5.44
40 | CCOc1ccc(C(=O)Nc2c3c(nn2-c2ccc(OC)cc2)CS(=O)(=O)C3)cc1 | 4.37
41 | CNC(=O)/C(C#N)=C/c1c(Oc2ccc(C)cc2)nc2ccccn2c1=O | -1.86
42 | COc1ccc(C(=N)NOC(=O)c2ccc(Br)o2)cc1 | 5.3
43 | COC(=O)c1ccc(CSc2nc3ccncc3n2Cc2ccccc2F)cc1 | -3.57
44 | Cc1cc(S(=O)(=O)Nc2c(C)nc3sccn3c2=O)ccc1F | 0.454
45 | CCN(CC)CCNC(=O)C1=C(C)C(=O)OC12CCN(C(C)=O)CC2 | -8.59
46 | CC1=C(C(=O)N2CCOCC2)C(c2cccc(O)c2)C2=C(O)CC(C)(C)CC2=N1 (stereo not shown) | -8.35
47 | COc1cc2c(cc1OC)CN(Cc1[nH]cnc1C)CC2 | -6.62
48 | Cc1cccc(C)c1N1C(=O)c2ccc(F)cc2C1=O | 3.5
49 | Cc1ccc2oc(=O)c3cc(C(=O)Nc4cccnc4)sc3c2c1 | 7.78
50 | O=C1OC(/C=C/c2ccccc2)=NC/1=C/c1ccccc1C(F)(F)F | 12.3

Row | SMILES | % Inhibition @ 10 uM [%]
51 | Cc1cc(C)nc(SCCC(=O)Nc2ccccc2Cl)n1 | 3.8
52 | Cc1ccc(-c2onc(C)c2C)cc1S(=O)(=O)NC(C)(C)C | -6.49
53 | Fc1ccc(CNC2CCN(Cc3ccccc3)CC2)cc1 | -6.62
54 | O=C(NC1CCCCC1)C1CCCN(c2ncnc3c2nc2n3CCCCC2)C1 (stereo not shown) | -0.74
55 | CCN(CC)CCCNC(=O)c1ccc(CS(=O)(=O)c2ccccc2OC)o1 | -3.09
56 | Cc1ccc(NC(=O)CN2C(=O)N/C(=C/c3ccc(-c4ccc(F)cc4)o3)C2=O)cc1 | 3.3
57 | CCOC(=O)N1CCN(C(=O)c2cc3n(n2)C(C(F)(F)F)CC(c2ccc4c(c2)OCO4)N3)CC1 (stereo not shown) | 4.79
58 | CC(C)c1ccccc1NC1=NS(=O)(=O)c2ccccc21 | 4.16
59 | CC(C)(C)c1ccc(C(=O)Nc2ccccn2)cc1 | -4.02
60 | Cc1ccc2c(c1)-c1c(cnn1CC(=O)NCCC1=CCCCC1)CO2 | 5.09
61 | Cc1cc(C(=O)NCC(C)c2ccccc2)n[nH]1 (stereo not shown) | 3.95
62 | CCOCCCNc1cnn(C23CC4CC(CC(C4)C2C(=O)O)C3)c(=O)c1Cl (stereo not shown) | 1.15
63 | CC(C)CC(NC(=O)N1CCN(Cc2ccccc2)CC1)C(=O)NCC#N (stereo not shown) | 0.556
64 | COCCN1C(=O)c2oc3cc(C)c(C)cc3c(=O)c2C1c1ccc(OCCC(C)C)c(OC)c1 (stereo not shown) | -4.78
65 | O=C(O)c1ccnc(Cl)c1 | -6.67
66 | CC(=O)Nc1ccc(NC(=O)CN(c2cccc3ccccc23)S(C)(=O)=O)cc1 | -2.09
67 | CCC(C)(C)NS(=O)(=O)c1cc(CN2C(=O)c3cccnc3C2=O)ccc1OC | 3.6
68 | CCOc1ccccc1CNC(=O)CCCn1nc(C)c2c(C)n(-c3ccc(C)cc3)nc2c1=O | 5.14
69 | O=C(O)CCC(=O)Nc1ccc(N2CCN(c3ccc(F)cc3)CC2)cc1 | -0.891
70 | Nc1ncc(Br)cc1S(=O)(=O)NCCC(=O)NCc1ccccc1Cl | -6.69
71 | CCn1cc(/C=C(\NC(=O)c2ccccc2F)C(=O)NCCCN2CCOCC2)c2ccccc21 | -5.36
72 | C=CCn1c(=N)c(C(=O)NCc2ccco2)cc2c(=O)n3cc(C)ccc3nc21 | -1.47
73 | CC(=O)Nc1ccc(S(=O)(=O)Nc2ccccc2C(N)=O)cc1 | -0.914
74 | Cc1ccc(OCC(=O)NCCN2CCCC2)cc1 | -2.76
75 | Cc1ccc(C(=O)NCC2CCCO2)c(F)c1F (stereo not shown) | -0.834

Row | SMILES | % Inhibition @ 10 uM [%]
76 | Cc1sc(NC(=O)c2ccc3c(c2)OCO3)c(C(N)=O)c1C | 5.04
77 | CCOc1ccc2nc(SCC(=O)Nc3nc4ccccc4s3)sc2c1 | 3.25
78 | COc1cc(-c2[nH]nc3c2C(c2ccc(Cl)c(Cl)c2)C(C#N)=C(N)O3)cc(OC)c1OC (stereo not shown) | 0.484
79 | Cc1onc(-c2ccccc2)c1C(=O)Nc1cccc(OC(C)C)c1 | 1.64
80 | CCOc1cc2c(cc1OCC)C1C(C(=O)NCC3CCCN3CC)c3ccccc3C(=O)N1CC2 (stereo not shown) | -2.19
81 | CCOc1ccc(-c2cc(OC(=O)c3ccccc3F)c3c(C)oc(C)c3c(=O)c2)cc1 | -2.75
82 | O=C(c1ccco1)C(O)(c1ccccc1)c1ccco1 (stereo not shown) | -3.45
83 | CS(=O)(=O)c1nc(S(=O)(=O)c2ccc(Cl)cc2)c(NCc2ccccn2)s1 | 1.15
84 | CCC(C)(C)/N=c1/c(-c2ccc(C(C)C)cc2)c(O)c1=O | 2.24
85 | COc1ccccc1NC(=O)c1sc(N)c(C#N)c1C | 2.38
86 | N#CCNC(=O)C(CC1CCCCC1)C(=O)Nc1ccccc1 (stereo not shown) | -0.214
87 | Cc1c(C(=O)NCCc2ccc(Cl)cc2)sc2nc3n(c(=O)c12)CCCCC3 | -1.38
88 | COc1ccc(CCNS(=O)(=O)c2ccc3oc(C(=O)O)c(C)c3c2)cc1OC | 1.16
89 | CCOc1ccc(/C=C2\SC(N3CCc4ccccc4C3)=NC2=O)cc1 | -0.169
90 | COc1ccc(/C=C/C(=O)c2ccc(-c3ccccc3)cc2)cc1OC | 1.44
91 | COc1ccc(C2C(C(=O)CCc3ccccc3)=C(O)C(=O)N2Cc2ccccc2)cc1 (stereo not shown) | -5.95
92 | COCCn1c(SCC(=O)NC2CCCCC2)nc2c(c1=O)SCC2 | -5.47
93 | Cc1nn(Cc2ccccc2)c(N)c1-c1ccccc1 | -2.17
94 | COc1ccccc1CNCc1cc(Br)ccc1OC | -5.26
95 | CC1CCc2nc(NS(=O)(=O)c3ccccc3)sc2C1 (stereo not shown) | -7.96
96 | O=C(Cn1ncc2c1-c1ccccc1OC2)NCCN1CCOCC1 | 6.38
97 | Cc1nc2ccccc2c2oc(C(=O)N3CCN(C4CCCCC4)CC3)cc12 | 7.66
